# Results reported in PubChem BioAssay AID686978 (National Center for Advancing Translational Sciences (NCATS), 2013).
# Where “and” joins values, the source holds several entries; their conditions need not be identical. Equal entries are not always repeated. Hit rate of the full screen: of about 420,000 compounds, about 64,000 (15%) were called active. Inconclusive results, whose numbers are uncertain, are shown with a selection of clear calls. Calls follow the shape of the dose curve; as a rule, active = well fitted inhibition curve with a large enough effect; inconclusive = small, poorly fitted or top-dose-only effect; inactive = flat fitted curve, though single readings scatter. Potencies of inconclusive entries are left out as doubtful fits. Some compounds were tested as several samples or in several runs, with calls that do not always agree.
# Assay: qHTS for Inhibitors of human tyrosyl-DNA phosphodiesterase 1 (TDP1): qHTS in cells in absence of CPT; also: nearly all actives have a fitted effect of over 55% in size
# Settings: DT40 Tdp1-/- hTDP1 cells, no CPT, ATP luminescence, 48 h; activity change, negative = growth inhibition: at 46.2 µM (top of the series) unless noted
# Procedure, shortened: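 Cells were dispensed at 400 per well, compounds added by pin tool, plates incubated ≥48 hr at 37 °C, then CellTiter-Glo added for 30 min at room temperature before luminescence reading. Line: DT40 Tdp1-/- complemented with hTDP1; camptothecin omitted.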
# % is scaled to controls: 0 for no effect and ±100 for the full control effect; potency is read from the fitted curve at half-maximal effect; tags tell the direction and shape of the fitted curve.
Compound,Potency,"activity change, negative = growth inhibition"
O=[N+]([O-])c1cc(Br)c(OCc2nnc(-c3ccccc3)o2)c(Br)c1,"inconclusive [inhibitor, single point]",
CCOC(=O)c1c(NC(=O)CSc2nnc(C)s2)sc2c1CCC(C)C2 (stereo not given),active: 20.6 µM,
CCOC(=O)c1[nH]c2cc3c(cc2c1NC(=O)CN1CCC2(CC1)OCCO2)OCO3,"inconclusive [inhibitor, single point]",
COc1cc(C(O)c2nc(-c3cccc(C(C)C)c3)cs2)ccc1F (stereo not given),active: 18.4 µM,
COC(=O)N(C)C[C@@H]1OCc2cnnn2CCCC(=O)N([C@H](C)CO)C[C@@H]1C,,inactive: -2.8%
CCOC(=O)c1ccc(CNc2ncnc3nc[nH]c23)cc1,active: 11.2 µM,
CCN(c1ccc(OC)cc1)S(=O)(=O)c1nnc(NC(=O)c2ccc(C)cc2)s1,"inconclusive [inhibitor, single point]",
COc1ccc(OC)c(CNS(=O)(=O)c2c(C(=O)N3CCCCCC3)c(C)n(C)c2C)c1,"inconclusive [inhibitor, single point]",
CCCCN(Cc1cc2cc(OC)ccc2[nH]c1=O)C(=O)c1ccccn1,"inconclusive [inhibitor, partial curve]",
NS(=O)(=O)c1ccc(NC(=O)c2ccc(CNS(=O)(=O)c3cc(C(F)(F)F)ccc3Cl)cc2)cc1,"inconclusive [inhibitor, partial curve]",
COc1ccc(N2CCN(C(=O)c3ccc(Cl)c(S(=O)(=O)N4CCOCC4)c3)CC2)cc1,"inconclusive [inhibitor, partial curve]",
OC(CNC1Cc2ccccc2C1)COc1ccc(Cl)cc1 (stereo not given),,inconclusive: -38.7% [inhibitor]
CN(C)S(=O)(=O)c1cccc(NC(=O)CSc2nc3ccccc3n2-c2ccccc2)c1,active: 25.9 µM,
CC(C)Cc1ccc(CN2CCCC(NC(=O)CCN3CCOCC3)C2)cc1 (stereo not given),"inconclusive [inhibitor, single point]",
COc1cccc(OCc2cc(C(=O)N3CCN(C)C(c4ccccc4)C3)no2)c1 (stereo not given),"inconclusive [inhibitor, single point]",
CCOC(=O)c1csc(-c2ccc(COC(=O)c3ccccc3)o2)n1,,inactive: -2.2%
CC12CCC(C(=O)Nc3ccccc3-n3cccc3)(CC1=O)C2(C)C (stereo not given),"inconclusive [inhibitor, single point]",
Cc1ccc(CNC(=O)Cn2cc(S(=O)(=O)Cc3ccccc3F)c3ccccc32)cc1,"inconclusive [inhibitor, single point]",
O=[N+]([O-])c1ccc(N2CCN(Cc3ccc4c(c3)OCO4)CC2)nc1,"inconclusive [inhibitor, single point]",
COc1ccc(Cl)cc1NC(=O)CSC1=Nc2ccccc2C2=NC(CC(=O)NCc3ccc4c(c3)OCO4)C(=O)N12 (stereo not given),"inconclusive [inhibitor, single point]",
Nc1ccc2c(c1)C(O)c1ccc(Cl)cc1-2 (stereo not given),,inactive: -1.47%
NC(=O)C1CCN(C(=O)c2ccccc2SCC(=O)NCC2CCCCC2)CC1,,inactive: -7.16%
COc1ccc(S(=O)(=O)NCc2ccc(C)cc2)cc1,"inconclusive [inhibitor, single point]",

Compound,Potency,"activity change, negative = growth inhibition"
CCc1ccc2nc(N(CCN(C)C)C(=O)/C=C/c3cccs3)sc2c1,"inconclusive [inhibitor, single point]",
CCCc1nc(SCC(=O)Nc2nnc(CC)s2)c2c(=O)n(C)c(=O)n(C)c2n1,active: 3.26 µM,
O=S(=O)(CCOc1ccccc1)c1nc2ccccc2[nH]1,active: 23.1 µM,
CCCCCNC(=O)C(c1ccc(-c2ccccc2)cc1)n1c(=O)c(-c2ccccc2)nc2ccccc21 (stereo not given),"inconclusive [inhibitor, partial curve]",
COc1ccc(COC(=O)N/N=C(\C)CC(=O)Nc2ccc(Cl)cn2)cc1,,inactive: -1.34%
COc1ccc(CCNC(=O)CC(=O)N/N=C\c2ccc(OCC(N)=O)cc2)cc1OC,,inactive: -2.61%
O=C(Nc1cc(Cl)cc(Cl)c1)C1CC(=O)N(C2CCCC2)C1 (stereo not given),"inconclusive [inhibitor, single point]",
CCn1c(=O)n(CC)c2cc(N3CCCCC3)c(NC(=O)Nc3ccccc3C(F)(F)F)cc21,active: 10.3 µM,
COc1ccccc1C(=O)Nc1ccc2c(c1)nc(CN1CCCCC1)n2C,inactive and active: 23.1 µM,
Cn1c(SCC(O)c2ccccc2)nnc1-c1ccc2ccccc2c1 (stereo not given),"inconclusive [inhibitor, single point]",
CCc1nc2c(OCC(=O)c3ccc(Cl)cc3Cl)cccn2c1N(C=O)Cc1ccc(OC)cc1,active: 18.4 µM,
O=c1cnc2cnc(N3CCOCC3)nc2n1CCc1ccccc1,,inactive: 3.25%
Cc1ccc(C2NC(=O)c3ccccc3N2)s1 (stereo not given),active: 4.61 µM,
C=CCc1ccccc1OCC(O)CN1CCN(c2ccccc2)CC1 (stereo not given),"inconclusive [inhibitor, single point]",
COc1ccc(Nc2ncc3c(n2)CC(c2ccccc2)CC3=O)cc1 (stereo not given),"inconclusive [inhibitor, partial curve]",
CCNC(=O)N1c2ccc(OCC)cc2C(C)=CC1(C)C,active: 18.4 µM,
CC1Cc2cc(S(=O)(=O)N3CCN(c4ccc(Cl)cc4)CC3)ccc2N1C(=O)C1CC1 (stereo not given),active: 13 µM,
CC(NC(=O)C1CCCCC1)C(c1cccs1)N1CCN(C)CC1 (stereo not given),,inactive: -7.01%
CCOC(=O)c1ccc(NC(=O)CC2C(=O)N(c3cccc(OC)c3)C(=O)N2Cc2ccc(OC)cc2)cc1 (stereo not given),"inconclusive [inhibitor, single point]",
COc1ccc(-c2nnc(NC(=O)c3c(OC)cccc3OC)s2)cc1,"inconclusive [inhibitor, partial curve]",
CCNc1nc(NCC)nc(N/N=C/c2cc(OC)c(OC)c(OC)c2)n1,"inconclusive [inhibitor, partial curve]",
Cc1ccc(S(=O)(=O)Nc2nc3ccccc3nc2NCc2ccco2)cc1,"inconclusive [inhibitor, single point]",
